# In the supplement of paper PMC4604168 (melanoma cell lines):
# The list shows a part of the results. Single values are uncertain, as repeats are few or missing.
# Assays:
# Experiment in all cases: cell count relative to DMSO control; melanoma cells; higher = more viable cells
# Conditions in all cases: library dose: low library concentration; 72 h
# MZ2-MEL = system: MZ2-MEL
# MeWo = system: MeWo
# RPMI7951 = system: RPMI7951
# RVH-421 = system: RVH-421
# SkMel28 = system: SkMel28
# SkMel2 = system: SkMel2
# SkMel30 = system: SkMel30
# SkMel5 = system: SkMel5
# UACC257 = system: UACC257
# UACC62 = system: UACC62
# WM115 = system: WM115
# WM1716 = system: WM1716
# WM1745 = system: WM1745
# WM3526 = system: WM3526
# WM3619 = system: WM3619
# WM451Lu = system: WM451Lu
# 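Note: cell number obtained by counting DAPI-stained nuclei in high-throughput microscope images with image analysis software, screen run in 1,536-well plates.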
Compound,cell count (MZ2-MEL),cell count (MeWo),cell count (RPMI7951),cell count (RVH-421),cell count (SkMel28),cell count (SkMel2),cell count (SkMel30),cell count (SkMel5),cell count (UACC257),cell count (UACC62),cell count (WM115),cell count (WM1716),cell count (WM1745),cell count (WM3526),cell count (WM3619),cell count (WM451Lu)
"COc1cc([C@@H]2c3cc4c(cc3[C@@H](O[C@@H]3O[C@@H]5CO[C@@H](C)O[C@H]5[C@H](O)[C@H]3O)[C@H]3COC(=O)[C@H]23)OCO4)cc(OC)c1O [etoposide] + CC(C)CCN1c2nc(Nc3cc(F)c(O)c(F)c3)ncc2N(C)C(=O)C1C [BID1870] (first compound 0.02 µM, partner dose 0.2 µM)",95.8%,97.7%,102%,109%,86.4%,88%,80%,86.8%,79.3%,76.2%,80.6%,104%,96.5%,79.5%,87.5%,91.1%
"C[C@]1(O)C[C@@H](c2nc(-c3ccc4ccc(-c5ccccc5)nc4c3)c3c(N)nccn32)C1 + Cc1cc(N2CCOCC2)cc2[nH]c(-c3c(NC[C@@H](O)c4cccc(Cl)c4)cc[nH]c3=O)nc12 [BMS536924] (first compound 0.4 µM, partner dose 0.2 µM)",97.5%,86.2%,102%,97.7%,101%,71.4%,102%,99.6%,72.4%,103%,115%,105%,76.4%,137%,80.1%,111%
"Cn1cnc2c(F)c(Nc3ccc(Br)cc3Cl)c(C(=O)NOCCO)cc21 [selumetinib] + CN(C)S(=O)(=O)c1ccc2c(c1)/C(=C/c1cc3c([nH]1)CCCC3)C(=O)N2 [SU6656] (first compound 0.015 µM, partner dose 0.4 µM)",73.3%,88.9%,103%,63.8%,80.4%,67.9%,70.9%,91.3%,87.5%,78.4%,75.5%,110%,70.7%,78.2%,84.2%,74%
"COc1cc([C@@H]2c3cc4c(cc3[C@@H](O[C@@H]3O[C@@H]5CO[C@@H](C)O[C@H]5[C@H](O)[C@H]3O)[C@H]3COC(=O)[C@H]23)OCO4)cc(OC)c1O [etoposide] + COc1cc(N2CCC(N3CCN(C)CC3)CC2)ccc1Nc1ncc(Cl)c(Nc2ccccc2S(=O)(=O)C(C)C)n1 [NVP-TAE684] (first compound 0.02 µM, partner dose 0.08 µM)",97.9%,89.1%,101%,101%,96.6%,92.8%,83.7%,90.8%,91.2%,87.7%,82.9%,79.6%,80.7%,87.3%,109%,71.7%
"CCN(CC)CCNC(=O)c1c(C)[nH]c(/C=C2\C(=O)Nc3ccc(F)cc32)c1C [sunitinib] + CO[C@@H]1[C@H](N(C)C(=O)c2ccccc2)C[C@H]2O[C@]1(C)n1c3ccccc3c3c4c(c5c6ccccc6n2c5c31)C(=O)NC4 [Midostaurin] (first compound 0.4 µM, partner dose 0.08 µM)",104%,83.5%,121%,105%,89.2%,110%,82.8%,103%,76.7%,89.7%,91%,99.3%,44.1%,92.9%,89%,99.8%
"Cn1cnc2c(F)c(Nc3ccc(Br)cc3Cl)c(C(=O)NOCCO)cc21 [selumetinib] + O=C(O)c1ccc(-c2c[nH]c3ncc(-c4ccccc4)cc23)cc1C1CCCC1 [GSK650394] (first compound 0.015 µM, partner dose 0.16 µM)",88.1%,79.2%,121%,83.2%,91.5%,73.9%,67.8%,112%,77.1%,86%,87.7%,118%,113%,76.1%,93.1%,110%
"C[C@]1(O)C[C@@H](c2nc(-c3ccc4ccc(-c5ccccc5)nc4c3)c3c(N)nccn32)C1 + CCN(CC)CCCCNc1ncc2cc(-c3cc(OC)cc(OC)c3)c(NC(=O)NC(C)(C)C)nc2n1 [PD173074] (first compound 0.4 µM, partner dose 0.1 µM)",102%,87.4%,90.2%,74.5%,98.3%,83.3%,95.9%,104%,78.9%,102%,99.7%,113%,76.1%,77.4%,104%,67.6%
"C[C@]1(O)C[C@@H](c2nc(-c3ccc4ccc(-c5ccccc5)nc4c3)c3c(N)nccn32)C1 + Cn1cncc1[C@@](N)(c1ccc(Cl)cc1)c1ccc2c(c1)c(-c1cccc(Cl)c1)cc(=O)n2C [tipifarnib] (first compound 0.4 µM, partner dose 0.01 µM)",88%,86%,80.3%,76.7%,92.8%,60%,82.8%,81.7%,79.2%,68.2%,95.1%,73.4%,70.6%,73.5%,105%,71.3%
"C[C@]1(O)C[C@@H](c2nc(-c3ccc4ccc(-c5ccccc5)nc4c3)c3c(N)nccn32)C1 + CO[C@@H]1[C@H](N(C)C(=O)c2ccccc2)C[C@H]2O[C@]1(C)n1c3ccccc3c3c4c(c5c6ccccc6n2c5c31)C(=O)NC4 [Midostaurin] (first compound 0.4 µM, partner dose 0.08 µM)",92.7%,93.3%,104%,94.7%,93.5%,81%,112%,94.4%,75%,87.1%,80.1%,89.8%,78.5%,80.2%,69.9%,83.5%
"Cn1cnc2c(F)c(Nc3ccc(Br)cc3Cl)c(C(=O)NOCCO)cc21 [selumetinib] + COc1cc2c(Oc3ccc4[nH]c(C)cc4c3F)ncnc2cc1OCCCN1CCCC1 [cediranib] (first compound 0.015 µM, partner dose 0.4 µM)",80.6%,98.5%,103%,76.1%,93%,86.6%,83.2%,109%,101%,80.7%,91%,108%,69.4%,69.2%,97%,120%
"COc1cc([C@@H]2c3cc4c(cc3[C@@H](O[C@@H]3O[C@@H]5CO[C@@H](C)O[C@H]5[C@H](O)[C@H]3O)[C@H]3COC(=O)[C@H]23)OCO4)cc(OC)c1O [etoposide] + O=C1NC(=O)/C(=C/c2ccc(-c3ccc(F)cc3O)o2)S1 [AS252424] (first compound 0.02 µM, partner dose 1 µM)",104%,78.9%,117%,110%,81.2%,104%,93.4%,98.6%,82.2%,86.7%,82.6%,92.6%,90.4%,90%,107%,129%
"CCN(CC)CCNC(=O)c1c(C)[nH]c(/C=C2\C(=O)Nc3ccc(F)cc32)c1C [sunitinib] + COc1ccc(COc2ccc(Cc3cnc(N)nc3N)cc2OC)cc1 [GW2580] (first compound 0.4 µM, partner dose 1 µM)",102%,89.6%,104%,95.2%,102%,112%,82.7%,90.8%,88.4%,88.6%,99.2%,134%,60.6%,92.8%,112%,83.7%
"COc1cc([C@@H]2c3cc4c(cc3[C@@H](O[C@@H]3O[C@@H]5CO[C@@H](C)O[C@H]5[C@H](O)[C@H]3O)[C@H]3COC(=O)[C@H]23)OCO4)cc(OC)c1O [etoposide] + O=C(O)C(=O)Nc1sc2c(c1C(=O)O)CCNC2 [TCS401] (first compound 0.02 µM, partner dose 1.66667 µM)",91.7%,87.1%,97%,114%,80.2%,87.5%,76.5%,96.6%,87.2%,73.7%,82.3%,92.8%,92.8%,94.2%,101%,94.4%
